# The supplement of paper PMC3334620
# In all, about 33,000 sequences were measured (“E-score (-0.5 to 0.5)”: median about -0.035, highest 2% from about 0.34 on). Some of the results follow.
# Target: T1, Mot3 (UniProt P54785)
# T1 sequence: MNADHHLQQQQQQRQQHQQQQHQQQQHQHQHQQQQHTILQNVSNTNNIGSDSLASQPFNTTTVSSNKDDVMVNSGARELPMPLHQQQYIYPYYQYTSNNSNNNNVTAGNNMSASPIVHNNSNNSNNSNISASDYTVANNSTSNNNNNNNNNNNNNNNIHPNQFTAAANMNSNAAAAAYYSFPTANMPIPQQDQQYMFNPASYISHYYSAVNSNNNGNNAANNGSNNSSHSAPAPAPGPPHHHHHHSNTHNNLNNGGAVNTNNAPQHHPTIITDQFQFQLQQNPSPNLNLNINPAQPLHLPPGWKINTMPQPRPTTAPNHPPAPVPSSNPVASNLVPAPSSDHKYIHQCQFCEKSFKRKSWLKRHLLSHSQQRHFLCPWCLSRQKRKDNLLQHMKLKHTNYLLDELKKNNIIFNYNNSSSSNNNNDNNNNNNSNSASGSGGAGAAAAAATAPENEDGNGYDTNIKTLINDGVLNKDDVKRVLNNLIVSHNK
# Experiment: PBM E-score (8-mer binding enrichment) (E-score (-0.5 to 0.5)); higher = stronger / more preferred TF binding; most listed sequences are background and not binding sites
# Details: protein concentration: 200 nM; construct: GST-full length
# Summary of the method: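 E-scores (a modified Wilcoxon-Mann-Whitney statistic) were assigned by the Universal PBM Analysis Suite to every ungapped eight-base word pooled with its reverse complement. The input came from universal all-10-mer Agilent arrays made double-stranded by primer extension and probed with GST-tagged yeast transcription factors at about 100-200 nM. Fluorescent anti-GST detected bound protein, and masliner normalised the scans.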
row,Sequence,PBM E-score
1,ACGCTTCC,-0.0948
2,ACAATGGA,-0.0296
3,CGCTCCGA,-0.0751
4,ACCCCCCA,-0.178
5,CGACTGAA,-0.172
6,CTGTACTC,-0.179
7,CGTACTAA,0.138
8,AGTGGGCG,-0.192
9,AATCCGAC,-0.0692
10,GGTGGCCA,-0.201
11,GAAAGATA,0.00378
12,ATTGCGCA,-0.122
13,ATTGGTTC,0.149
14,ATACGGTC,-0.061
15,CGAAGCTC,-0.229
16,TACCACGA,0.181
17,GGACTCGA,-0.181
18,CAAAACCG,0.0415
19,GATCGAGA,-0.0696
20,CGACACAC,0.219
21,AAGCGAGG,-0.222
22,ATGCAGCC,-0.0826
23,AGACAGAG,0.0671
24,CGGAATGA,-0.113
25,CAGTCTAC,-0.134

row,Sequence,PBM E-score
1,ACTACTTC,-0.00563
2,CGGCAACC,-0.0847
3,AGGGAAAT,-0.0244
4,AGGCGCAG,0.166
5,TGCTCTAA,-0.00036
6,CGCTATGC,-0.0544
7,GATATATA,0.143
8,ATTCTGTG,-0.0127
9,GCCATTCC,-0.144
10,ACACCACC,-0.0988
11,GGCTTCTA,-0.207
12,GAATGCTA,-0.207
13,CCTTCATC,0.00919
14,GGTATAAA,-0.00745
15,TAACATAA,0.341
16,GACCGCTA,-0.199
17,CAATTGGG,-0.214
18,AGCAATCG,0.0936
19,GACTGGCA,-0.131
20,AGAACCAA,-0.0501
21,ACCCAATC,-0.24
22,CTGGGCGC,-0.198
23,AGGATTGA,0.0163
24,AGAAGGAG,-0.107
25,ATGGCCGG,-0.189

row,Sequence,PBM E-score
1,CCCGCTCA,-0.14
2,AACGCCAA,0.155
3,GAGTGATA,-0.0503
4,GGAACCCA,-0.107
5,CATTCCAG,-0.132
6,ATGTGGCC,-0.195
7,AGTGTGGC,-0.192
8,CTAACCGA,0.00207
9,CTCTCTGA,-0.348
10,CATTGTTA,0.15
11,ATCTTGTC,0.176
12,CGCATGGA,-0.0319
13,CATTATGG,-0.0987
14,CCTTCGCG,0.0462
15,CCGCATAA,-0.0908
16,CCAAGAAG,-0.0857
17,CGGCACTA,-0.184
18,ACTATTCG,0.14
19,CTGACATA,0.128
20,CTTTCGTC,0.0134
21,AAATCTTA,0.12
22,CGAACTAC,-0.00477
23,ACTATAAC,0.0802
24,CTGAGAGC,-0.108
25,AGAGGTCC,-0.298

row,Sequence,PBM E-score
1,AGATGCGC,-0.171
2,ACAGTAGC,0.0188
3,GATTGCAA,0.00955
4,CGATTCGC,-0.0243
5,ACGTAGAC,0.0612
6,GCCGACGA,-0.172
7,CGTAAAGC,0.211
8,TAATATCA,0.128
9,GACGAGAA,-0.0524
10,GGCGCACA,-0.208
11,AGAAAAGC,-0.171
12,CCCGGTAG,-0.161
13,TTGGGAAA,-0.028
14,CTCATCCA,-0.127
15,ATCTTACA,0.219
16,TACTAGGA,0.101
17,CCAATCGG,-0.352
18,ACCGAGCC,-0.19
19,AGGACACT,-0.159
20,CCTAACCA,0.0213
21,GCCCAATA,0.107
22,ATTGTCAC,-0.123
23,AGAGACCG,-0.187
24,CCCCGCTA,-0.119
25,GGTCGTTA,0.0318

row,Sequence,PBM E-score
1,TCACCAGA,-0.239
2,GGGTAGCA,-0.327
3,AAAGGTCA,-0.0805
4,ATGTTGCA,0.158
5,GTGCCACA,-0.197
6,TACAATAA,0.128
7,TACCATAA,-0.114
8,AGCGACGA,-0.0963
9,GGGACGAC,-0.187
10,ACTATCCC,-0.33
11,CGGGTAAG,-0.116
12,CGTTAAAA,0.151
13,AAGAGCGC,-0.0182
14,GGAACACA,0.192
15,ACCCCCGG,-0.239
16,AAAGCGGA,0.0141
17,CATCCGAA,0.0344
18,CGGCCGTC,-0.221
19,AGGCGGCG,0.103
20,CACTGCCC,-0.121
21,CATGGAGC,0.0242
22,GCCGTATA,0.0713
23,CTTGGAGC,-0.276
24,GCACCTCC,-0.215
25,GTGATCAC,-0.27

row,Sequence,PBM E-score
1,ATGGGGAA,-0.129
2,AATCGACC,-0.241
3,AGTTCCCC,-0.283
4,AAGTAAGG,0.157
5,AAAGCATC,0.101
6,TACTCGAA,0.113
7,GGTAAACA,0.323
8,AGCTGAAC,-0.255
9,AAATCTGG,-0.124
10,AAGGGGGC,-0.138
11,AGTGAAGC,-0.161
12,CGCGGATC,-0.141
13,CGCACAGC,-0.18
14,AACGGTAT,-0.00635
15,AGGACTTA,-0.127
16,CCTGCATA,0.126
17,CCCAGTAC,-0.245
18,GCCCCTCC,-0.186
19,AATGGGTA,0.0916
20,GTGTCGCA,-0.00994
21,GGGAGACA,0.0178
22,AATGTGCC,0.275
23,GCGTTACC,0.0266
24,CCGCGAGC,-0.26
25,CGAGTGAC,-0.174

row,Sequence,PBM E-score
1,GAGTAGCC,-0.23
2,TCCTTTAA,0.249
3,CCCGCGTC,-0.0996
4,CGTAGATA,0.209
5,CCGGGCAA,-0.273
6,AGATTGCA,0.0463
7,ACTGTGGG,-0.177
8,ATATAATG,0.0479
9,ATCGTAGG,0.09
10,CACCAGTC,-0.0991
11,GCGACACA,0.0395
12,CGCTAGAG,-0.23
13,ATCATTCA,-0.0539
14,AACGGATC,0.141
15,CGATTAGC,-0.119
16,ACCCCTTA,-0.0114
17,GGAACGAA,0.157
18,GTGTAAGA,0.312
19,CTAGAGAG,-0.193
20,CTACCGTC,-0.228
21,GAGGTGTA,0.0524
22,CAAGGGTG,-0.106
